Among all 310,000 compounds or so, about 14,000 (4.5%) showed an effect of 50% or more. Effects have a minus sign here. The list shows a part of the results.
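Note: peak tail current of the secondary pulse compared with the same well before compound.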

The target of this test is human ether-à-go-go-related gene (hERG) potassium channel (human, UniProt Q12809). Description: primary screen, population patch clamp on CHO cells stably expressing hERG.
human ether-à-go-go-related gene (hERG) potassium channel, sequence (Q12809 whole entry, looked up): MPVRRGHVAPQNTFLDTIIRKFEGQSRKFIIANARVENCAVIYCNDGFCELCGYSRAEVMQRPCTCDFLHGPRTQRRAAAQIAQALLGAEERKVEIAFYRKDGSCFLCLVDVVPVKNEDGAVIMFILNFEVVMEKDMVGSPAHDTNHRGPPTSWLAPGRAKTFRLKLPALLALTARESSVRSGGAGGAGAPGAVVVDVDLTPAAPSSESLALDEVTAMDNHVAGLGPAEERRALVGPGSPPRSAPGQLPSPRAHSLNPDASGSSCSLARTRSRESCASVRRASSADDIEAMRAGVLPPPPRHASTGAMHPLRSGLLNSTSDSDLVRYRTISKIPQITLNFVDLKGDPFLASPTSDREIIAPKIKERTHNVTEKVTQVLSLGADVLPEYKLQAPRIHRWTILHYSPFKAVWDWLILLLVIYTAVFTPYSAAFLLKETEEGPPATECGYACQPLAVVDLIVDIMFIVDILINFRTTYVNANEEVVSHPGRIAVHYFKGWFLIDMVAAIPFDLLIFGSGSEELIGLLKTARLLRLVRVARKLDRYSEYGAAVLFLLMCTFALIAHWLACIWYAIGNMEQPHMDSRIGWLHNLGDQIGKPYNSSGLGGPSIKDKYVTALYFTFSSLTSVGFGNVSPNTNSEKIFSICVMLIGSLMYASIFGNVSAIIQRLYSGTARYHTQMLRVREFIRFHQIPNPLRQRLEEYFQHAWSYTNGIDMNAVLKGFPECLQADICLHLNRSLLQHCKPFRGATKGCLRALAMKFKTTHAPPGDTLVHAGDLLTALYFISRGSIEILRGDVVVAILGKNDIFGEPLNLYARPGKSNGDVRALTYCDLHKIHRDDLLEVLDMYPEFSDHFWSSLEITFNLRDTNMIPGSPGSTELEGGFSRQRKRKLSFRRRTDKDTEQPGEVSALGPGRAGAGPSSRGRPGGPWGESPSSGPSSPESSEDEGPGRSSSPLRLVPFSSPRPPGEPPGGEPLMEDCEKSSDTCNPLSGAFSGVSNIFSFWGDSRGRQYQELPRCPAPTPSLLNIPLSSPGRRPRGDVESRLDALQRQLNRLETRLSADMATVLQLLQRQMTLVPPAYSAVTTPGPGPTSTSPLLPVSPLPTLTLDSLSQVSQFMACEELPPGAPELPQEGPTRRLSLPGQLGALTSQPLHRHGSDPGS
With `CC(C)[N+]1=C2C=CC=CC=C2SC12C([N+](=O)[O-])=CC(=[N+]([O-])[O-])C=C2[N+](=O)[O-]` (centres unmarked), the “hERG current change (%, negative = inhibition) at 10uM” value amounted to 8.46%.
On to `COc1ccc(-c2noc(=O)n2Cc2ccc(C#N)cc2)cc1`, for which the “hERG current change (%, negative = inhibition) at 10uM” value was -70.1%.
`CC(=O)c1sc(N)c(C(=O)OC(C)C)c1C`: the “hERG current change (%, negative = inhibition) at 10uM” value is recorded as 7.72%.
Regarding `O=C(NCCN1C(=O)S/C(=C\c2ccccc2)C1=O)c1cc(S(=O)(=O)N2CCOCC2)c(Cl)cc1Cl`, the “hERG current change (%, negative = inhibition) at 10uM” value is reported as -14.6%.
In the case of `O=C(CCc1c[nH]c2ccccc12)NC(Cc1ccccc1)C(=O)O` (centres unmarked), the “hERG current change (%, negative = inhibition) at 10uM” value is 27.2%.
Then `COc1ccccc1NC(=O)N1CCC(c2nnc(SCC(N)=O)n2C)CC1`, with 19.1%; and `Cc1cc(C)nc(SCc2ccc(C(=O)NN=C3C4CC5CC(C4)CC3C5)cc2)n1`, with -16.9%; and `Cc1ccc(NC(=O)C2CCCCC2)c(O)c1`, with 12.5%.
Then `CN(C)c1nc(NCc2ccccc2)nc(SCC(=O)Nc2ccc(Cl)c(Cl)c2)n1`, with -7.82%.
Regarding `O=C(CSCc1ccc([N+](=O)[O-])cc1)Nc1cccc(C(=O)Nc2ccccc2C(=O)O)c1`, the “hERG current change (%, negative = inhibition) at 10uM” value turned out to be 24.5%.
With `CCOC(=O)c1cc(C(C)=O)n2ccccc12`, the “hERG current change (%, negative = inhibition) at 10uM” value is listed as -7.93%.
On to `O=C(OCC(=O)N1CCc2ccccc21)c1nc(Cl)ccc1Cl`, for which the “hERG current change (%, negative = inhibition) at 10uM” value is recorded as -4.3%.
Regarding `O=C(Nn1cnnc1)c1ccc(F)c(S(=O)(=O)N2CCCCC2)c1`, the “hERG current change (%, negative = inhibition) at 10uM” value worked out at 11.3%.
Next, `COc1ccc(-c2nc(CN3CCN(C(=O)c4ccco4)CC3)c(C)o2)c(F)c1`: -13.6%; `CC(=O)Nc1cc(NC(C)=O)cc(C(=O)NC(C)(C)C)c1`: -1.78%; `COC(=O)c1ccc(=O)n(Cc2ccco2)c1`: 0.244%.
Then `COC(=O)C1=C(C)N(c2ccc(OC)cc2)C(C)=C(C(=O)OC)C1c1ccc(OC)cc1`, with 19.1%; and `COc1ccccc1/C=C/C(=O)OCC(=O)NC1CCCCCC1`, with -5.97%.
Next, `CCCOc1ccc(C(=O)N2CCN(Cc3ccc4c(c3)OCO4)CC2)cc1`: -67.7%; `Cc1c(CC(=O)N[C@@H](C)C(=O)O)c(=O)oc2cc3occ(-c4ccccc4)c3cc12`: 18.8%; `NC(=O)C1CCN(C2OC(=O)c3ccccc32)CC1` (centres unmarked): -10.7%.
As for `CC(NC(=O)C(c1ccccc1)c1ccccc1)c1ccc(S(N)(=O)=O)cc1` (centres unmarked), the “hERG current change (%, negative = inhibition) at 10uM” value is recorded as 6.81%.
On to `CN(C)S(=O)(=O)c1ccc(Cl)c(NC(=O)COC(=O)/C=C/c2ccc(S(=O)(=O)N3CCOCC3)cc2)c1`, for which the “hERG current change (%, negative = inhibition) at 10uM” value turned out to be 0.0827%.
Next, `COCCN(C(=O)COC(=O)c1ccccc1Oc1ccccc1)c1c(N)n(Cc2ccccc2)c(=O)[nH]c1=O`: -21.6%; `CC1SC(=Nc2ccccc2)N(S(=O)(=O)c2ccccc2)C1=O` (centres unmarked): 12.3%.
Next, `COc1ccc(N(CC(=O)N2CCOCC2)S(C)(=O)=O)cc1Cl`: -5.97%; `CCN1C(=O)[C@@H]2[C@@H](c3ccc(-c4ccc(C(C)=O)cc4)cc3)N3CCCC[C@@]3(C(=O)OC)[C@@H]2C1=O.O=C(O)C(F)(F)F`: 11.9%; `CC(C)/C=N/Nc1nc2c(c(=O)n(C)c(=O)n2C)n1C`: 9.69%.
Regarding `COc1ccc(/C=N/NC(=O)c2ccc(Cl)c(S(N)(=O)=O)c2)cc1OCC(N)=O`, the “hERG current change (%, negative = inhibition) at 10uM” value is -0.755%.
Next, `COc1ccc(/C=N/Nc2nc(N3CCCC3)nc(N3CCCC3)n2)cc1O`: -46.1%.
In the case of `CCOc1cc(C(=O)NC2=NCCS2)cc(OCC)c1OCC`, the “hERG current change (%, negative = inhibition) at 10uM” value is given as 10.3%.
On to `O=C(C1CCN(S(=O)(=O)N2CCOCC2)CC1)N1CCC2(CC1)OCCO2`, for which the “hERG current change (%, negative = inhibition) at 10uM” value came out at 14.4%.
Consider `CCCCN(C(=O)c1ccc(-c2ccc(Cl)cc2)o1)c1c(N)n(CC(C)C)c(=O)[nH]c1=O`, for which the “hERG current change (%, negative = inhibition) at 10uM” value is on record as 14.4%.
As to `COC(=O)C1=C(C(=O)c2ccc(C)cc2)C(c2ccc(OC)c(OC)c2)n2nnnc2N1` (centres unmarked), the “hERG current change (%, negative = inhibition) at 10uM” value stood at 3.59%.
For the compound `Cn1c(Cc2ccccc2)nnc1SCC(=O)Nc1ccccc1`, the “hERG current change (%, negative = inhibition) at 10uM” value is 9.54%.
In the case of `O=S(=O)(NCC1CCCO1)c1ccc(S(=O)(=O)N(Cc2ccc(F)cc2)C2CCCCC2)cc1` (centres unmarked), the “hERG current change (%, negative = inhibition) at 10uM” value is -2.39%.
Then `COc1ccc(CCNC(=O)COc2ccc(C)nc2[N+](=O)[O-])cc1`, with -13.3%; and `CC(=O)c1cnc2cc(-c3ccc(Cl)cc3)nn2c1C`, with 0.234%; and `O=C(CCc1ccccc1)Nc1cc2c3c(c1)CC(=O)N3CCC2`, with -7.6%.
Next, `Cn1cc([N+](=O)[O-])c(C(=O)NC2CCCCCC2)n1`: 14.5%; `O=C(O)c1cc(-n2[nH]c(=O)c3ccccc3c2=O)ccc1Cl`: 21.3%; `Cc1ccc(C)c(C(=O)CSc2nc3ccccc3c(=O)[nH]2)c1`: 19.7%.
In the case of `Cc1cc(C(=O)COC(=O)c2ccccc2Br)c(C)n1CC1CCCO1` (centres unmarked), the “hERG current change (%, negative = inhibition) at 10uM” value is given as -32.6%.
As to `COc1ccc(N2CCN(S(=O)(=O)c3ccc4c(c3)NC(=O)C(C)S4)CC2)cc1` (centres unmarked), the “hERG current change (%, negative = inhibition) at 10uM” value is listed as 6.85%.
In the case of `CCN(CC(=O)Nc1cc(Cl)ccc1C)C(=O)C1CC(=O)N(Cc2ccccc2)C1` (centres unmarked), the “hERG current change (%, negative = inhibition) at 10uM” value is listed as -16.1%.
Then `Cc1ccc(C)c(N2CCN(S(=O)(=O)c3c(C)[nH]c(C)c3C(=O)N3CCCC3)CC2)c1`, with -8.25%; and `COC(=O)[C@H](Cc1ccccc1)NC(=O)N1CCCCCC1`, with 13.5%.
Next, `C#Cc1ccc([C@H]2C=C(C(=O)O)O[C@@H](OCCCCO)C2)cc1`: 13.6%.
`COc1ccc2c(c1)CCC(C)N2C(=O)C(=O)c1c[nH]c2ccccc12` (centres unmarked): the “hERG current change (%, negative = inhibition) at 10uM” value is on record as 13.8%.
Then `O=C(Nc1ccccc1C(=O)OCn1nnc2ccccc2c1=O)c1ccco1`, with 16%; and `CN1C2CCC1CC(NC(=O)CSc1ccc(C(C)(C)C)cc1)C2` (centres unmarked), with -21.6%; and `S=C(Nc1cc(Cl)ccc1Cl)Nn1cnnc1`, with 30.8%.
Next, `Fc1ccc(-c2cc(-c3ccccc3)nc(-n3cccn3)n2)cc1`: -4.4%.
